# Experimental data reported in PMC6664820, “Novel natural and synthetic inhibitors of solute carriers SGLT1 and SGLT2” (Pharmacology Research & Perspectives, 2019).
# Screen size: about 1,900 compounds; about 40 (2%) showed an effect of 50% or more. Some of the results follow. Residues, ends and D or L forms follow the SMILES beside them.
# Biological target: human SGLT1 (hSGLT1) (human, UniProt P13866)
# Assay: primary screen, percent of control activity; higher = less effect of the substance
# Design: single well
# Conditions: 50 µM
# Protocol: Two days before the assay, CHO‐wild type and CHO‐hSGLT1 cells were seeded in maintenance medium at 25 000 cells/well in clear‐bottom black 96‐well cell culture plates. Before the assay, cells were washed 3 times with 150 μL/well D‐glucose free DMEM with 0.3% (w/v) BSA. Library compounds at 50 μmol/L (singlicate) prepared in D‐glucose free DMEM with 160 μmol/L 1‐NBD‐glucose and 0.3% (w/v) BSA and negative controls (triplicate) were added at 100 μL/well and placed in a humidified incubator at 37°C with 5% CO2 for 90 minutes. Next, cells were washed 3 times with DMEM with 0.3% (w/v) BSA (150 μL/well). Care was taken to remove all medium after the last wash. Finally, 1‐NBD‐glucose was extracted from the cells by adding 10 μL/well isopropanol and orbital shaking for 5 minutes at 600 rpm, followed by incubation in the dark for 30 minutes. Fluorescence was measured on a Tecan Infinite M200 Microplate Reader (Tecan, Männedorf, Switzerland) with excitation at 445 nm and emission at 525 nm. The amount of 1‐NBD‐glucose taken up by the CHO‐wild type or CHO‐hSGLT1 cells in the presence or absence of test compounds was interpolated from 1‐NBD‐glucose calibration standards. The background uptake by CHO‐wild type was subtracted from the uptake by CHO‐hSGLT1. Background corrected uptake with test compound was expressed as a percentage of corrected uptake without test compound.
# human SGLT1 (hSGLT1), sequence (P13866 whole entry, looked up): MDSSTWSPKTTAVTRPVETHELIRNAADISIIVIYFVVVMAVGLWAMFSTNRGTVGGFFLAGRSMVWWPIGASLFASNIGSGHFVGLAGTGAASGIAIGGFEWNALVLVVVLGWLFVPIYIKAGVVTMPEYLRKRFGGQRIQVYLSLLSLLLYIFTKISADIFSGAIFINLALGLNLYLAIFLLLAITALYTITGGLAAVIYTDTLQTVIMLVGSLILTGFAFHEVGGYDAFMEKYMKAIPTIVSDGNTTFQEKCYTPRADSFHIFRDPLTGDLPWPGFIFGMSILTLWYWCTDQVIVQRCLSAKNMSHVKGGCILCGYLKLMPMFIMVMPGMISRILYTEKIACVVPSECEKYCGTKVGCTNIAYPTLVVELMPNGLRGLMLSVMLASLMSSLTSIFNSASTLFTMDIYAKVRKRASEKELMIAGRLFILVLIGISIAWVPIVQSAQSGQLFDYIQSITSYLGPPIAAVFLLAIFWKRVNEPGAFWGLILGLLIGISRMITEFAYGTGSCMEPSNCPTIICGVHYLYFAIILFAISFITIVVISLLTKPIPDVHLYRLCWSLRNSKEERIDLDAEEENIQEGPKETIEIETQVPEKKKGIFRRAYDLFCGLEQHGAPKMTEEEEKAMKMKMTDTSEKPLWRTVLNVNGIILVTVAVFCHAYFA
row,SMILES,NORMALIZED SGLT1 ACTIVITY (%)
1,CCCCC1C(=O)N(c2ccccc2)N(c2ccc(O)cc2)C1=O (stereo not drawn),109
2,C[C@]12CCC(=O)C=C1CCc1ccc(O)cc12,127
3,COCCOC(=O)C1=C(C)NC(C)=C(C(=O)OC(C)C)C1c1cccc([N+](=O)[O-])c1 (stereo not drawn),151
4,c1ccc2c(Cc3c[nH]c4ccccc34)c[nH]c2c1,95
5,C=CC1=C(C(=O)O)N2C(=O)[C@@H](NC(=O)/C(=N\O)c3csc(N)n3)[C@H]2SC1,98
6,COc1c(Cl)c(C)c2c(c1Cl)OC(=O)c1c(C)c(Cl)c(OC)c(Cl)c1O2,113
7,COc1ccc(-c2cc(=O)c3c(O)cc(O[C@H]4O[C@H](CO[C@@H]5O[C@@H](C)[C@H](O)[C@@H](O)[C@H]5O)[C@@H](O)[C@H](O)[C@H]4O)cc3o2)cc1,121
8,CC1(C)S[C@@H]2[C@H](NC(=O)Cc3ccccc3)C(=O)N2[C@H]1C(=O)[O-].[K+],115
9,Cc1ccc2c(c1)CC[C@H]1CC(=O)CC[C@]21C,113
10,CCCCCCCCCCC[C@@H](C[C@@H]1OC(=O)[C@H]1CCCCCC)OC(=O)[C@H](CC(C)C)NC=O,96
11,O=[N+]([O-])c1cccc2cn[nH]c12,154
12,CC[C@H]1OC(=O)[C@H](C)[C@@H](O[C@H]2C[C@@](C)(OC)[C@@H](O)[C@H](C)O2)[C@H](C)[C@@H](O[C@@H]2O[C@H](C)C[C@H](N(C)C)[C@H]2O)[C@](C)(O)C[C@@H](C)[C@@H]2N[C@@H](COCCOC)O[C@H]([C@H]2C)[C@]1(C)O,115
13,CC(=O)N[C@@H](CC(=O)O)C(=O)O,100
14,O=C1O[C@H](CO)[C@@H](O)[C@H](O)[C@H]1O,128
15,Cn1c(=O)c2nc(C3CCCC3)[nH]c2n(C)c1=O,240
16,Cn1cnc([N+](=O)[O-])c1Sc1[nH]cnc2ncnc1-2,96
17,CC(C)(S)[C@@H](N)C(=O)O,144
18,CO[C@H]1C[C@H](O[C@H]2[C@H](C)[C@@H](O[C@@H]3O[C@H](C)C[C@H](N(C)C)[C@H]3OC(C)=O)[C@@H](C)C[C@@]3(CO3)C(=O)[C@H](C)[C@@H](OC(C)=O)[C@@H](C)[C@@H](C)OC(=O)[C@@H]2C)O[C@@H](C)[C@@H]1OC(C)=O,119
19,COc1cc(OC)c2c(=O)cc(-c3ccccc3)oc2c1,118
20,CC(=O)NO,99
21,O=C(O)c1cc(-c2ccc(F)cc2F)ccc1O,328
22,O=C1CCO1,135

row,SMILES,NORMALIZED SGLT1 ACTIVITY (%)
1,CC(C)(Oc1ccc(Cl)cc1)C(=O)O,144
2,O=C(N[C@@H](Cc1ccccc1)C(=O)CCl)OCc1ccccc1,115
3,CC(=O)O[C@H]1CCC2(C)C3=C(CCC2C1(C)C)[C@]1(C)CCC(C(C)CCC=C(C)C)[C@@]1(C)CC3 (stereo partly drawn),119
4,COC1C(O)C(O[C@H]2CC[C@]3(C=O)C4C(CC[C@]3(O)C2)[C@@]2(O)CC[C@H](C3=CC(=O)OC3)[C@@]2(C)C[C@H]4OC(C)=O)OC(C)C1OC(C)=O (stereo partly drawn),99
5,CCOC(=O)C1(O)Oc2cc(OC)cc(OC)c2C(=O)C1c1ccccc1 (stereo not drawn),188
6,CC(=O)O[C@@H]1CC2C(C)(C)C(=O)C=C[C@]2(C)C2CC[C@@]3(C)[C@H](c4ccoc4)OC(=O)[C@H]4O[C@]43[C@@]21C (stereo partly drawn),116
7,COc1ccc([C@H]2Oc3c(I)c(OC)cc(OC)c3C[C@@H]2O)cc1OC,116
8,CCC1(c2ccccc2)C(=O)NCNC1=O,116
9,O=C(CCCN1CC=C(n2c(=O)[nH]c3ccccc32)CC1)c1ccc(F)cc1,131
10,Cl.Clc1ccc(C(OCCN2CCCCC2)c2ccccc2)cc1 (stereo not drawn),37
11,COc1cc2c(cc1OC)C(C)NCC2 (stereo not drawn),73
12,Cl.NCC(=O)c1ccccc1,104
13,COc1cc(C)c2c(c1C=O)Oc1c(c(C)c(O)c3c1C(O)OC3=O)OC2=O (stereo not drawn),216
14,CC(=O)OCC1=C(C(=O)[O-])N2C(=O)[C@@H](NC(=O)CSc3ccncc3)[C@H]2SC1.[Na+],84
15,Oc1ccc(Cl)c2cccnc12,208
16,COC(=O)[C@@]1(C)CCC[C@]2(C)c3ccc(O)c(C(C)C)c3CCC12 (stereo partly drawn),138
17,CC(CCc1ccccc1)NC(C)C(O)c1ccc(O)cc1.Cl (stereo not drawn),99
18,CC[C@H]1OC(=O)[C@H](C)[C@@H](O[C@H]2C[C@@](C)(OC)[C@@H](O)[C@H](C)O2)[C@H](C)[C@@H](O[C@@H]2O[C@H](C)C[C@H](N(C)C)[C@H]2O)[C@](C)(O)C[C@@H](C)C(=O)[C@H](C)[C@@H](O)[C@]1(C)O,94
19,C[C@@H]1CCC2[C@](C)(CO)[C@@H](O)CC[C@]2(C)[C@@]12CC[C@@](CO)(CCO)O2 (stereo partly drawn),101
20,CC(=O)NCCc1c[nH]c2ccc(O)cc12,138
21,CNC(C)[C@@H]1CC[C@@H](N)[C@@H](OC2[C@@H](N)C[C@@H](N)[C@H](OC3OC[C@](C)(O)[C@H](NC)[C@H]3O)[C@H]2O)O1.O=S(=O)(O)O (stereo partly drawn),95
22,Cl.O=C1NCC2(CCN(CCc3ccccc3)CC2)O1,104

row,SMILES,NORMALIZED SGLT1 ACTIVITY (%)
1,CS(=O)(=O)OCCCCOS(C)(=O)=O,96
2,C[N+]1(CCCCC[N+]2(C)CCCC2)CCCC1.O=C([O-])C(O)C(O)C(=O)O.O=C([O-])C(O)C(O)C(=O)O,111
3,N=C(NCCC[C@H](N)C(=O)O)N[N+](=O)[O-],94
4,O=c1cc(-c2ccccc2)oc2cc(O)c(O)c(O)c12,155
5,CCCN(CCC)C(=O)C(CCC(=O)O)NC(=O)c1ccccc1 (stereo not drawn),104
6,CCCCC[C@H](CC(=O)O)C(=O)O,154
7,C=C1CC2OC2(C)CC[C@@H]2[C@@H]1CC2(C)C (stereo partly drawn),84
8,CC(=O)Nc1ccc(O)cc1,103
9,C/C=C(/C(=C/C)c1ccc(O)cc1)c1ccc(O)cc1,97
10,CCOc1ccc(C(=O)c2ccc(OC)c(O)c2O)cc1,233
11,CCC(CCC(C)[C@H]1CCC2C3CC=C4C[C@@H](O)CC[C@]4(C)C3CC[C@@]21C)C(C)C (stereo partly drawn),106
12,COC(=O)C[C@H]1C(C)(C)C(OC(C)=O)[C@]2(O)C=C3C4CC(=O)O[C@@H](c5ccoc5)[C@]4(C)CCC3[C@@]1(C)C2=O (stereo partly drawn),98
13,CC(=O)O[C@H]1CC[C@@]2(C)C(=CC(=O)C3C4CCC(C(C)CCCC(C)C)[C@@]4(C)CCC32)C1 (stereo partly drawn),121
14,C=CCSCC1Nc2cc(Cl)c(S(N)(=O)=O)cc2S(=O)(=O)N1 (stereo not drawn),103
15,COc1cc2c(cc1OC)-c1cc3ccc(OC)c(OC)c3c[n+]1CC2.[Cl-],104
16,COc1ccc(C2CC(=O)c3ccc(OC)cc3O2)cc1 (stereo not drawn),122
17,COc1cc2ccc(=O)oc2c(O)c1O,142
18,COc1ccc(C(=O)c2ccc(O)cc2)c(O)c1O,377
19,Nc1nc(O)c2nc(C(=O)O)cnc2n1,97
20,CC1(C)C(=O)C=C[C@@]2(C)C1C=C[C@]1(C)C2CC[C@@]2(C)[C@H](c3ccoc3)OC(=O)[C@H]3O[C@]321 (stereo partly drawn),64
21,COC(=O)c1c(C)c2c(c(C)c1O)OC(=O)c1c(C)c(Cl)c(O)c(Cl)c1O2,877
22,CC(=O)NC1CCSC1=O (stereo not drawn),91

row,SMILES,NORMALIZED SGLT1 ACTIVITY (%)
1,C[C@]12CC[C@@H]3c4ccc(O)cc4CC[C@H]3[C@@H]1C[C@@H](O)[C@@H]2O,147
2,C=C(C)[C@H]1CC=C(C(=O)O)CC1,171
3,CCN(CCCc1ccccc1)CCCc1ccccc1.O=C(O)CC(O)(CC(=O)O)C(=O)O,207
4,Cc1cccc2c3c(ccc12)C1=C(C(=O)C3=O)[C@@H](C)CO1,90
5,CC(=O)O[C@@H]1CC[C@@]2(C)C(C[C@@H](OC(C)=O)[C@@]3(C)C4=CC(=O)O[C@@H](c5ccoc5)[C@]4(C)CCC23)C1(C)C (stereo partly drawn),192
6,Cc1noc(NS(=O)(=O)c2ccc(N)cc2)c1C,122
7,CNC(=O)Oc1ccccc1OC(C)C,99
8,COc1ccc(-c2coc3c(O)c(OC)ccc3c2=O)cc1,175
9,Cn1nnnc1SCC1=C(C(=O)O)N2C(=O)[C@@H](NC(=O)[C@H](OC=O)c3ccccc3)[C@H]2SC1,94
10,CC1(C)CC[C@@]2(C(=O)O)C(C1)C1=CCC3[C@@]4(C)CC[C@H](O)C(C)(C)C4CC[C@@]3(C)[C@]1(C)C[C@@H]2O (stereo partly drawn),-6
11,OCC(O)C(O)C(O)C(O)C(O)CO (stereo not drawn),99
12,COc1cc(O)c(C)c(O)c1,113
13,O=c1c(O)cccc2cc(O)c(O)c(O)c12,137
14,CCOP(=S)(OCC)SCn1c(=O)oc2cc(Cl)ccc21,57
15,COC(=O)CCC(C)[C@H]1CCC2C3C(C[C@H](O)[C@@]21C)[C@@]1(C)CC[C@@H](O)C[C@H]1C[C@H]3O (stereo partly drawn),100
16,Cc1onc(-c2ccccc2Cl)c1C(=O)N[C@@H]1C(=O)N2[C@@H]1SC(C)(C)[C@@H]2C(=O)[O-].[Na+],89
17,CC(C)[N+](C)(CCC(C(N)=O)(c1ccccc1)c1ccccc1)C(C)C.[I-],112
18,C[C@H](CCC(=O)[O-])[C@H]1CCC2C3C(=O)CC4CC(=O)CC[C@]4(C)C3CC(=O)[C@@]21C.[Na+] (stereo partly drawn),90
19,NCCCC[C@H](N)C(=O)N[C@@H](Cc1ccccc1)C(=O)N[C@@H](Cc1ccc(O)cc1)C(=O)O (H-Lys-Phe-Tyr-OH),110
20,COc1ccc([C@@H](C)C(=O)c2ccc(O)cc2O)cc1,120
21,C[C@@H]1CC[C@@]2(NC1)O[C@H]1C[C@H]3C4CC=C5C[C@@H](O)CC[C@]5(C)C4CC[C@]3(C)C1[C@@H]2C (stereo partly drawn),109
